Measurements taken from PubChem BioAssay (NCATS).
This list was built around the results that the source calls inconclusive (neither active nor inactive); the mix of calls is not that of the screen. Potencies beside an inconclusive call are fits to weak or partial responses and may not hold up. Active and inactive are the calls of the source. Unless noted, calls follow the shape of the dose curve; as a rule, active = well fitted curve in the direction sought with a large enough effect; inconclusive = small, poorly fitted or top-dose-only effect, or another doubt; inactive = no such curve, though single readings can be large; an effect the other way counts as inactive or inconclusive.

How the values were obtained:
[1] = Primary qHTS for inhibitors of nuclear receptor binding SET domain protein 2 (NSD2) in an isogenic RCH-ACV NSD2 p.E1099K mutant (9B) (AID 1645876); also: nearly all actives have a fitted effect of over 70% in size
[2] = system: HEK293; assay: Cytotoxic Profiling of Annotated Libraries Using Quantitative High-Throughput Screening (AID 1296008); conditions: Five cell lines viability, CellTiter-Glo ATP luminescence, 48-72 h; max response: stronger effect = lower value; also: nearly all actives have a fitted effect of over 60% in size; as to max response: % is scaled to controls: 0 for no effect and ±100 for the full control effect
Summary of the method: (§1)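 Cytotoxicity was measured as CellTiter-Glo ATP luminescence, read after 10 min at room temperature. Compound treatment of the cells lasted 48 or 72 hr at 37 degrees Celsius in a qHTS format.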

[3] = system: HaCat; assay: as above; conditions: Five cell lines viability, CellTiter-Glo ATP luminescence, 48-72 h; max response: stronger effect = lower value
Summary of the method: as §1

[4] = system: KB-3-1; assay: as above; conditions: Five cell lines viability, CellTiter-Glo ATP luminescence, 48-72 h; max response: stronger effect = lower value
Summary of the method: as §1

[5] = system: NIH3T3; assay: as above; conditions: Five cell lines viability, CellTiter-Glo ATP luminescence, 48-72 h; max response: stronger effect = lower value
Summary of the method: as §1

[6] = system: C33A; assay: Primary qHTS to identify gynecologic anti-cancer compounds using libraries of approved drugs and bioactive compounds (AID 1345084); conditions: Gynecologic cancer cell panel viability, ATPlite luminescence, 48 h; series mostly up to 57.5 µM; also: nearly all actives have a fitted effect of over 55% in size; as to activity change, negative = cytotoxicity: % is scaled to controls: 0 for no effect and ±100 for the full control effect
Summary of the method: (§2)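 Cells, 1,000 per well, were allowed to settle for 16 h at 37 C before compound addition. Five concentrations were tested for 48 h, and viability was read by ATPlite luminescence after 15 min at room temperature.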

[7] = system: CAOV3; assay: as above; conditions: Gynecologic cancer cell panel viability, ATPlite luminescence, 48 h; series mostly up to 57.5 µM
Summary of the method: as §2

[8] = system: CASKI; assay: as above; conditions: Gynecologic cancer cell panel viability, ATPlite luminescence, 48 h; activity change, negative = cytotoxicity: at 57.5 µM (top of the series)
Summary of the method: as §2

[9] = system: HeLa; assay: as above; conditions: Gynecologic cancer cell panel viability, ATPlite luminescence, 48 h; series mostly up to 57.5 µM
Summary of the method: as §2

[10] = system: Hek293T; assay: as above; conditions: Gynecologic cancer cell panel viability, ATPlite luminescence, 48 h, control line for the selectivity index; series mostly up to 57.5 µM
Summary of the method: as §2

[11] = system: OV90; assay: as above; conditions: Gynecologic cancer cell panel viability, ATPlite luminescence, 48 h; series mostly up to 57.5 µM
Summary of the method: as §2

[12] = system: PA-1; assay: as above; conditions: Gynecologic cancer cell panel viability, ATPlite luminescence, 48 h; series mostly up to 57.5 µM
Summary of the method: as §2

[13] = system: SKOV3; assay: as above; conditions: Gynecologic cancer cell panel viability, ATPlite luminescence, 48 h; series mostly up to 57.5 µM
Summary of the method: as §2

[14] = system: Tov112D; assay: as above; conditions: Gynecologic cancer cell panel viability, ATPlite luminescence, 48 h; activity change, negative = cytotoxicity: at 57.5 µM (top of the series)
Summary of the method: as §2

[15] = Primary qHTS for inhibitors of nuclear receptor binding SET domain protein 2 (NSD2) in an RCH-ACV wild type WT cells (2C) (AID 1645877); conditions: activity change, negative = cell killing: at 44.9 µM (top of the series); also: nearly all actives have a fitted effect of over 70% in size; as to activity change, negative = cell killing: % is scaled to controls: 0 for no effect and ±100 for the full control effect
[16] = biological target: Cytochrome P450 2D6 (Homo sapiens) (UniProt P10635); assay: Cytochrome P450 family 2 subfamily D member 6 (CYP2D6) small molecule antagonists: luciferase biochemical (cell-free) qHTS assay (AID 1645840; active = well fitted curve in the direction sought with a large enough effect in the repeat runs; inconclusive = weak or mixed curves; inactive = no such curve, though single readings can be large; an effect the other way counts as inactive or inconclusive; also: nearly all actives have a fitted effect of over 55% in size)
Summary of the method: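 P450-Glo luminescent screen: recombinant CYP2D6 enzyme–proluciferin substrate mix preincubated with compound 10 min at room temperature, then NADPH regeneration added for 1 h at room temperature. Detection reagent added for 20 min; luciferin light read as relative luminescence units.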

[17] = system: Tov-21-G; assay: Primary qHTS to identify gynecologic anti-cancer compounds using libraries of approved drugs and bioactive compounds (AID 1345084); conditions: Gynecologic cancer cell panel viability, ATPlite luminescence, 48 h; activity change, negative = cytotoxicity: at 57.5 µM (top of the series); also: nearly all actives have a fitted effect of over 55% in size; as to activity change, negative = cytotoxicity: % is scaled to controls: 0 for no effect and ±100 for the full control effect
Summary of the method: as §2

[18] = P-glycoprotein substrates identified in KB-8-5-11 adenocarcinoma cell line, qHTS therapeutic library screen (AID 1346987); also: nearly all actives have a fitted effect of over 65% in size
Summary of the method: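 P-gp-mediated resistance screen: KB-8-5-11 cells treated 72 h with compounds in dose-response. CellTiter-Glo viability.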

[19] = Primary fluorescence-based thiol-reactive (MSTI) qHTS assay for identification of artifact compounds. (AID 1845221);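 also: thiol-reactive compounds lower the probe fluorescence signal; nearly all actives have a fitted effect of over 65% in size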
Summary of the method: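 qHTS titration of compound; 4 uM MSTI, PBS pH 7.4, 2% DMSO; 1 h RT, dark; fluorescence 525/598 nm; normalized to Acetyl-MSTI and MSTI; 4-parameter Hill fit.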
Potency is read from the fitted curve at half-maximal effect; tags tell the direction and shape of the fitted curve.

UniProt P10635, sequence (P10635 whole entry, looked up): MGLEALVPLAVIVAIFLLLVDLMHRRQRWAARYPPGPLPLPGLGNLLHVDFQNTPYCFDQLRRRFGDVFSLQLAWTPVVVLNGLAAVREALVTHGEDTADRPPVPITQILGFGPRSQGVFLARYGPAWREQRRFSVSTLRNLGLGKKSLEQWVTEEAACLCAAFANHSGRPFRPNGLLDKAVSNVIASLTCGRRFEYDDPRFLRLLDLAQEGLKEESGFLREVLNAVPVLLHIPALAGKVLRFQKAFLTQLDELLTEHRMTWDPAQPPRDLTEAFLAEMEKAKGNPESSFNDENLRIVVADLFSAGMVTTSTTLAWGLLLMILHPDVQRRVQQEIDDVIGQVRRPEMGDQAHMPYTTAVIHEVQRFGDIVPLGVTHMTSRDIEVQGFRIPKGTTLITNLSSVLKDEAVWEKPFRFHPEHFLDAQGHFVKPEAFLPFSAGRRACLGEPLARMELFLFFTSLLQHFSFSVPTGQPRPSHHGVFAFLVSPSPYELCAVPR

C[C@](Cc1c[nH]c2ccccc12)(NC(=O)OC1C2CC3CC(C2)CC1C3)C(=O)NC[C@H](NC(=O)CCC(=O)O)c1ccccc1 (some centres undefined)
inconclusive: Potency [2] 37.2 µM [inhibitor, partial curve, poor fit]
inactive: Potency [1] | outcome [3]

O=C1NC(=O)[C@@H](c2cn3c4c(cccc24)CCC3)[C@H]1c1c[nH]c2ccccc12
active: Potency [2] 0.662 µM | Potency [4] 0.833 µM | Potency [5] 2.09 µM

Cc1cc(OCCOCC[N+](C)(C)Cc2ccccc2)ccc1C(C)(C)CC(C)(C)C
inconclusive: Potency [2] 7.5 µM [inhibitor, full curve, poor fit] | Potency [4] 29.1 µM [inhibitor, single point] | Potency [5] 33.5 µM [inhibitor, single point] | Potency [6] 28.2 µM [cytotoxic, single point] | Potency [7] 39.8 µM [cytotoxic, single point] | Potency [8] 14.1 µM [cytotoxic, partial curve] | Potency [10] 12.6 µM [cytotoxic, partial curve, poor fit] | Potency [11] 11.2 µM [cytotoxic, partial curve, poor fit] | Potency [12] 31.6 µM [cytotoxic, partial curve, poor fit] | Potency [13] 39.8 µM [cytotoxic, partial curve, poor fit] | Potency [14] 39.8 µM [cytotoxic, single point]
inactive: Potency [9]

Cn1ncnc1[C@@H]1c2n[nH]c(=O)c3cc(F)cc(c23)N[C@H]1c1ccc(F)cc1
inconclusive: Potency [2] 8.2 µM [inhibitor, partial curve]
active: Potency [1] 20.5 µM
inactive: max response [3] -18%

CC1(NC(=O)c2ccc(C#Cc3cccc(F)c3)cn2)COC1
inconclusive: Potency [1] 20.5 µM [inhibitor, single point] | Potency [15] 9.16 µM [inhibitor, partial curve] | Potency [2] 18.4 µM [inhibitor, single point] | Potency [3] 9.2 µM [inhibitor, partial curve]

OC[C@H]1O[C@@H](Oc2ccc(O)c3cccc(O)c23)[C@H](O)[C@@H](O)[C@@H]1O
inactive: outcome [2] | max response [3] -1.01%
inconclusive: Potency [1] 20.1 µM [inhibitor, single point] | Potency [15] 20.1 µM [inhibitor, single point]

COc1cc(NC(=O)c2cccc(-n3cc(NC(=O)Nc4cccc(C)c4)cn3)c2)cc(OC)c1OC
inconclusive: Potency [16] 7.56 µM [inhibitor, partial curve] | Potency [4] 18.4 µM [inhibitor, single point] | Potency [5] 23.1 µM [inhibitor, single point] | Potency [6] 39.8 µM [cytotoxic, single point] | Potency [7] 39.8 µM [cytotoxic, single point] | Potency [8] 39.8 µM [cytotoxic, single point] | Potency [9] 39.8 µM [cytotoxic, single point] | Potency [10] 39.8 µM [cytotoxic, single point] | Potency [13] 10 µM [cytotoxic, partial curve, poor fit] | Potency [17] 39.8 µM [cytotoxic, single point] | Potency [14] 25.1 µM [cytotoxic, single point]
active: Potency [1] 8.17 µM | Potency [2] 9.2 µM

C=CC(=O)Nc1ccc(CN2C(=O)N(c3cc(OC)cc(OC)c3)Cc3cnc(Nc4ccc(N5CCN(C)CC5)cc4)nc32)cc1
active: Potency [2] 11.6 µM | Potency [5] 8.2 µM | Potency [8] 14.1 µM | Potency [13] 15.8 µM
inactive: Potency [10]
inconclusive: Potency [18] 20.6 µM [inhibitor, single point] | Potency [19] 0.844 µM [inhibitor, full curve] | Potency [4] 25.9 µM [inhibitor, single point] | Potency [6] 7.08 µM [cytotoxic, partial curve] | Potency [7] 39.8 µM [cytotoxic, single point] | Potency [9] 25.1 µM [cytotoxic, partial curve, poor fit] | Potency [17] 14.1 µM [cytotoxic, partial curve] | Potency [14] 10 µM [cytotoxic, partial curve]

CN[C@@H]1[C@H](O[C@H]2[C@H](O[C@@H]3[C@@H](O)[C@H](O)[C@@H](N=C(N)N)[C@H](O)[C@H]3N=C(N)N)O[C@@H](C)[C@]2(O)C=O)O[C@@H](CO)[C@H](O)[C@H]1O
inactive: Potency [18] | Potency [15] | max response [2] 4.73% | max response [3] -17.2%
